The campaign covered roughly 50,000 compounds. About 800 (1.6%) showed an effect of 50% or more. This is one part of the list.

For this experiment, the target named is Bcl-2-like protein 10 (Homo sapiens) (UniProt Q9HD36). As to the kind of experiment: TR3 peptide-Bcl-B binding displacers, biochemical primary FP assay, phenotype converters (AID 1240).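 Further: 0% = Bcl-B with tracer peptide and DMSO and 100% = tracer peptide lacking Bcl-B.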 Particulars: GST-Bcl-B / FITC-TR3 peptide fluorescence polarization; stronger effect = higher value; compound at 3.75 mg/L.
Sequence of UniProt Q9HD36 (Q9HD36 whole entry, looked up): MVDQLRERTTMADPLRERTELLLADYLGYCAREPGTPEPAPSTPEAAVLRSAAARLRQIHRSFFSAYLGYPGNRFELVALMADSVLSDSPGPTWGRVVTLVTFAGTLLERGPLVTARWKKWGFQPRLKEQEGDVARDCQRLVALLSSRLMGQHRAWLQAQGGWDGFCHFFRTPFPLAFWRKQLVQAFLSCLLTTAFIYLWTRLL
As for `Cc1ccc(C)c(NC(=O)C2CC(=O)N(c3ccc(Cl)cc3)C2)c1` (stereo unspecified), the displacement was determined as 11.9%.

With `O=C1CC(c2ccc(Cl)cc2)CC2=C1C(c1cccc([N+](=O)[O-])c1)Nc1ccccc1N2` (stereo unspecified), the displacement was -3.5%.

Regarding `CC(C)Oc1ccccc1NC(=O)c1cccs1`, the displacement worked out at 3.4%.

For `O=P(Cc1ccncc1)(c1ccccc1)c1ccccc1`, the displacement came out at 5.8%.

As to `O=C(NCc1ccccn1)C12CC3CC(CC(C3)C1)C2`, the displacement was -4.4%.

For the molecule `COC(=O)c1ccc(-c2ccc(/C=C3/SC(=S)N(c4ccccc4)C3=O)o2)cc1`, the displacement was 12.6%.

Turning to `C=CCC1S/C(=N\N=C\c2ccccc2)NC1=O` (stereo unspecified), the displacement stood at 14.6%.

As for `CCCCCCCc1ccc(-c2ccc(O)cc2)nc1`, the displacement turned out to be 0.7%.

Turning to `COC(=O)C1=C(C)N(c2ccccc2F)C(=O)/C1=C\c1cccc(OC)c1`, the displacement is 10.1%.

Regarding `Cc1cc(C)c(NC(=O)c2ccccc2Br)c(C)c1`, the displacement was determined as 20.4%.

`CC1=C/C(=N\OC2=C(O/N=C3/C=CC(=O)C(C)=C3)C(=O)c3ccccc3C2=O)C=CC1=O`: the displacement was determined as 17.3%.

As for `CC(C)(C)c1ccc(C(=O)Nc2cc(C(N)=O)c(Cl)cc2Cl)cc1`, the displacement is 9%.

Regarding `CCOc1ccc(-c2cc(C)n3nc(C(=O)O)cc3n2)cc1`, the displacement is -12.3%.

As to `Cc1ccc(-n2nc3cc(C)c(NC(=O)/C=C/c4cccc([N+](=O)[O-])c4)cc3n2)cc1`, the displacement is -11.2%.

Regarding `CC(CO)(CO)N=Cc1c(O)n(-c2ccccc2)c(=S)[nH]c1=O`, the displacement is -6.6%.

Regarding `CCn1c2ccccc2c2cc(/C=N/NC(=O)c3cccc([N+](=O)[O-])c3)ccc21`, the displacement turned out to be 6.5%.

`CC(=O)Nc1ccc(S(=O)(=O)NN2C(=O)c3ccccc3C2=O)cc1`: the displacement was 11.4%.

In the case of `CCN(CC)C(=S)Nc1c(C)n(C)n(-c2ccccc2)c1=O`, the displacement is -0.2%.

Take `CC(C)CN1C(=O)c2ccc(C(=O)Nc3ccc(Br)cc3C(=O)O)cc2C1=O`: the displacement is -12.5%.

Take `Cc1ccc2c(c1)C1C=CCC1C(c1ccccc1[N+](=O)[O-])N2` (stereo unspecified): the displacement turned out to be 6.9%.

In the case of `Fc1ccc(CSc2nnc(-c3ccc(Cl)cc3Cl)o2)cc1`, the displacement is -7.1%.

Turning to `CCOc1ccc(C(=O)Nc2ccccc2C(N)=O)cc1`, the displacement was -9.4%.

On to `CCCC(=O)Nc1ccc(NC(=O)c2ccccc2OC)cc1`, for which the displacement came to 4.4%.

For `N/C(Cc1ccc([N+](=O)[O-])cc1)=N\OC(=O)COc1ccc2ccccc2c1`, the displacement was found to be 10.1%.

Turning to `CN(C)CCCNC(=O)Cc1ccc(Cl)cc1`, the displacement stood at 0.2%.

As for `O=C1N=c2ccccc2=C1c1sc(=S)n(CC2CCCO2)c1O` (stereo unspecified), the displacement was determined as 2.4%.

Regarding `CCOc1cc(OCC)cc(C(=O)Nc2cccc(C(F)(F)F)c2)c1`, the displacement was 12.9%.

Turning to `CCN1C(=O)/C(=C\c2ccccc2OCc2cccc3ccccc23)SC1=S`, the displacement worked out at 12.9%.

For `COc1ccc(Cl)cc1NC(=O)COc1ccc(Br)cc1C`, the displacement stood at 5.7%.

On to `Cc1cc(N2C(=O)NC(=O)/C(=C\c3cn(C)c4ccccc34)C2=O)ccc1Br`, for which the displacement stood at 126%.

For the molecule `COc1ccc(/C=N/NC(=O)c2ccc(Br)o2)c(C(=O)O)c1OC`, the displacement stood at 4%.

`COc1ccc(CCNC(=O)C2CN(S(=O)(=O)c3ccccc3)CCN2S(=O)(=O)c2ccccc2)cc1OC` (stereo unspecified): the displacement is -2.8%.

On to `COc1ccc(-c2nc(-c3ccc(C(=O)O)cc3)[nH]c2-c2ccc(OC)cc2)cc1`, for which the displacement was found to be 5.3%.

With `O=c1/c(=C/c2ccc([N+](=O)[O-])cc2)c2cccc3cccc1c32`, the displacement came out at 27.9%.

As for `CC(=O)c1cccc(NC(=O)Nc2cccc(Cl)c2)c1`, the displacement was 19.1%.

Consider `CN(C)C1(C)C(=O)c2ccccc2C1=O`, for which the displacement is -3.8%.

As for `O=C(CCNc1ccc(-c2ccccc2)cc1)c1cccs1`, the displacement is -15.1%.

For `N#Cc1c(NC(=O)C2CC3CCC2C3)sc2c1CCCCCC2` (stereo unspecified), the displacement is 12.9%.

Turning to `Cc1c(C)c2c(C)nn(-c3ccccc3)c2[nH]c1=O`, the displacement is -12%.

As to `Cc1ccc(C2=NNC(c3ccc(Cl)cc3Cl)S2)cc1` (stereo unspecified), the displacement was determined as 5.7%.

In the case of `CCC(=O)Nc1c(C)n(C)n(-c2ccccc2)c1=O`, the displacement was found to be 11.9%.

With `O=[N+]([O-])c1ccc(CSc2nnc(-c3ccccc3)c(-c3ccccc3)n2)cc1`, the displacement is -7.4%.

In the case of `C=CCc1ccccc1OCCOc1c(I)cc(/C=C2/SC(=S)N(C)C2=O)cc1OC`, the displacement was found to be 3.9%.

`C=CCc1cccc(/C=N/NS(C)(=O)=O)c1O`: the displacement worked out at 10.6%.

Regarding `Cc1ccc2ccc(S(=O)(=O)n3nc(C)cc3C)cc2c1`, the displacement was 11.2%.

Turning to `CCOc1ccc(N2C(=O)CC(N3CCN(c4cccc(Cl)c4)CC3)C2=O)cc1` (stereo unspecified), the displacement was -0.3%.

Consider `O=C(Nc1ccc(Cl)cc1)N(Cc1cccs1)Cc1cccs1`, for which the displacement stood at 17.1%.

For `Cc1ccc(-c2ncnn2-c2ccc(Cl)cc2)cc1`, the displacement was -6%.

For `COCCOC(=O)C1=C(C)NC2=C(C(=O)CC(C)(C)C2)C1c1ccncc1` (stereo unspecified), the displacement is 0.8%.

`COc1ccc(NC(=O)c2ccc(CN(c3ccccc3)S(C)(=O)=O)cc2)cc1`: the displacement was -4.2%.

In the case of `COc1ccc(/C=C/C(=O)Nc2nc3ccccc3n2C)cc1`, the displacement is -9.1%.

As for `CCOC(=O)C1=C(C)NC(=O)NC1c1ccc(OC)c([N+](=O)[O-])c1` (stereo unspecified), the displacement is -10.4%.

Consider `CC(=O)Nc1cc(-c2ccccc2Cl)[nH]n1`, for which the displacement was 13.1%.

As to `COc1ccc(-n2cnc3cc(Nc4nnc(C)c5ccccc45)ccc32)cc1`, the displacement was determined as 0.8%.

As for `O=C(Nc1cccc(NC(=O)c2cccc3ccccc23)c1)c1ccc(Cl)cc1Cl`, the displacement was -19.7%.

As for `O=C1N=c2ccccc2=C1c1sc(Nc2ccc(F)cc2)nc1O`, the displacement stood at 2.8%.

Regarding `CCOc1ccc(/C=C2/Sc3ccccc3C2=O)cc1OCC`, the displacement is 18.3%.

In the case of `CC(C)c1ccc(NC(=O)C2CC3CCC2C3)cc1` (stereo unspecified), the displacement is -5%.

Turning to `CCOc1ccc(NC(=O)C2=C(C)NC(=O)NC2c2ccc(OC)cc2OC)cc1` (stereo unspecified), the displacement amounted to 15.4%.

Regarding `COc1ccc(NC(=O)c2ccc(Cl)cc2)cc1Cl`, the displacement is 11.9%.

Regarding `N/C(=N/OC(=O)c1cccc([N+](=O)[O-])c1)c1nonc1N`, the displacement was -6.2%.

Regarding `O=C(Nc1ccc(F)cc1)N1CCc2ccccc21`, the displacement turned out to be 1.4%.

For `COc1ccc2c(c1[N+](=O)[O-])CCC/C2=N/OC(=O)c1cccc2ccccc12`, the displacement is 8.2%.

Turning to `O=C(Nc1ccc(Br)cn1)c1ccccc1F`, the displacement was -1.8%.

`Cc1ccccc1OCC(=O)N1CCC(C(N)=O)CC1`: the displacement is 5.9%.

For the molecule `COc1cc2c(cc1NC(=O)c1cccc(Br)c1)oc1ccccc12`, the displacement was -1.1%.

As to `O=C(O)/C=C/c1cccc(N2C(=O)C=CC2=O)c1`, the displacement is -11.6%.

Regarding `CCc1ccccc1NC(=O)C1COc2ccccc2O1` (stereo unspecified), the displacement is -9.6%.

As for `Cc1ccc(-c2nc3cc(Cl)ccc3o2)cc1NC(=O)c1cccc(Cl)c1Cl`, the displacement was -25.5%.

Take `Cc1ccc(-c2csc(NC(=O)C34CC5CC(CC(C5)C3)C4)n2)cc1`: the displacement worked out at 1%.

On to `COc1cc(/C=N/Nc2ccnc3cc(Cl)ccc23)ccc1O`, for which the displacement amounted to 19.5%.

For the molecule `O=C(c1ccc(F)cc1)c1ccc(NS(=O)(=O)c2ccc(Cl)cc2)cc1`, the displacement was determined as 0.8%.

Take `O=C(O)c1ccccc1N1C(=O)C2CC=CCC2C1=O` (stereo unspecified): the displacement came to 12.7%.

As to `CCOc1ccccc1N1CCN(C(=O)C(C)Oc2cccc(Cl)c2)CC1` (stereo unspecified), the displacement was found to be 44.6%.

On to `COc1cc2oc(=O)cc(C)c2cc1C=O`, for which the displacement was 19.1%.

`COc1ccccc1N1CCN(S(=O)(=O)c2ccc(Br)cc2)CC1`: the displacement was -6.5%.

Regarding `CC1(C)N(O)C(c2ccc[nH]2)N(O)C1(C)C`, the displacement is -8.6%.

`COc1ccc(N2C(=O)/C(=C/c3cn(-c4ccccc4)nc3-c3cccs3)SC2=S)cc1`: the displacement was found to be 0.4%.

On to `O=C1CSC(=S)N1/N=C/c1ccc(Br)cc1`, for which the displacement is -13.5%.

Consider `COc1ccc(C(=O)N2c3ccc(C)cc3C(Nc3ccc(C)cc3)CC2C)cc1` (stereo unspecified), for which the displacement was 4.2%.

For `CCOC(=O)C1=C(C)NC2=C(C(=O)CC(C)(C)C2)C1c1ccc(C)cc1C` (stereo unspecified), the displacement is -0.8%.

In the case of `O=[N+]([O-])c1ccc2c(c1Nc1ccccc1)=NC1(CCCCC1)N=2`, the displacement is 1.5%.

On to `CSc1nc(N)c(C#N)c(Cc2ccccc2)c1C#N`, for which the displacement was found to be 7.2%.

In the case of `CCOC(=O)c1ccccc1NC(=O)c1cc(OC)cc(OC)c1`, the displacement amounted to 13.6%.

As to `C/C(=N\N=C1\NC(=O)C(CC(=O)Nc2cc(Cl)ccc2Cl)S1)C(C)C` (stereo unspecified), the displacement is -17.2%.

`CCOC(=O)C1=C(O)/C(=C/c2cc(C)n(-c3ccc(C)c(C)c3)c2C)N=C1C`: the displacement turned out to be 20.5%.

For `CCN(CC)c1ccc(N2C(=O)/C(=C/c3ccc(OC)c(OC)c3)SC2=S)cc1`, the displacement came to 11.9%.

As for `CC(/C=C/c1ccccc1)=NNC(=O)c1ccc(Cl)cc1O`, the displacement turned out to be 9.5%.

Take `Cc1cc(-c2nc3ccc(Br)cc3c(=O)o2)ccc1[N+](=O)[O-]`: the displacement was determined as 22.4%.

Regarding `CCN(CC)c1ccc(/C=C(\NC(=O)c2ccccc2Cl)C(=O)NN)cc1`, the displacement is -48.1%.

As to `COc1cc(OC)c(NC(=O)c2cccc(F)c2)cc1Cl`, the displacement was 8.3%.

Consider `NC(=O)C1CCN(C2CC(=O)N(c3ccc(Cl)cc3)C2=O)CC1` (stereo unspecified), for which the displacement is -1.4%.

As to `O=C(c1ccc(C#Cc2ccccc2)cc1)N1CCN(c2ccccn2)CC1`, the displacement was -3.1%.

Regarding `COc1cc(N2N=C(c3ccccc3)CC2c2ccccc2)c(C=O)cc1C=O` (stereo unspecified), the displacement was -1%.

For the molecule `Cc1ccc2cc(C3=C/C(=C/c4ccc([N+](=O)[O-])o4)C(=O)O3)ccc2c1`, the displacement was -3.6%.

`O=C(O)CCCC(=O)Nc1ccccc1`: the displacement stood at 14.1%.

For `COc1cc(/C(C)=N/N2CCN(c3ccccc3OC)CC2)ccc1O`, the displacement stood at 16.4%.

Regarding `CCOc1ccc(NC(=S)NC(=O)/C=C/c2ccc(OC)cc2)c([N+](=O)[O-])c1`, the displacement is 13.2%.

For `O=C(Nc1ccccc1F)C1(c2ccccc2)CC1(Cl)Cl` (stereo unspecified), the displacement was -3.5%.

As for `CCOC(=O)C1=C(N)OC(C)=C(C(=O)OC)C1c1cccnc1` (stereo unspecified), the displacement was -10.9%.

Take `COC(=O)c1ccc(NC(=O)c2cccc([N+](=O)[O-])c2C)cc1`: the displacement is -4.6%.

Turning to `COc1cccc(N=C2c3ccc([N+](=O)[O-])cc3C(=O)C2C(C)=O)c1` (stereo unspecified), the displacement came out at 23.1%.

In the case of `O=C1C2ON(c3ccc(Cl)cc3)C(c3ccc(F)cc3)C2C(=O)N1c1ccc([N+](=O)[O-])cc1` (stereo unspecified), the displacement was -20.3%.

On to `O=C(N/N=C/C=N/NC(=O)c1cc(Br)ccc1O)c1cc(Br)ccc1O`, for which the displacement is -0.5%.

Take `COCC(=O)N/N=C/c1ccc(Sc2ccccn2)o1`: the displacement was -4.2%.

`CSc1ccc(/C=N/n2c(C)nnc2C)cc1`: the displacement was -5.2%.

On to `COc1cc(OC)cc(C(=O)NCC2CCCO2)c1` (stereo unspecified), for which the displacement was -4.7%.

Turning to `COc1ccccc1NC(=O)CN(c1ccccc1OC)S(=O)(=O)c1ccccc1`, the displacement was -8.5%.

Regarding `Cc1occc1C(=O)Nc1ccccc1F`, the displacement was found to be 5.2%.

On to `CCOC(=O)/C(=C/c1c[nH]c2ccccc12)C(C)=O`, for which the displacement is -9.1%.

On to `Clc1cc(Cl)c2nc3[nH]c4ccc(Br)cc4c3nc2c1`, for which the displacement was found to be 8%.

(Values after PubChem BioAssay AID1240 (Sanford-Burnham Center for Chemical Genomics, 2008).)
